Results: patent publication US9422338B2 (EpoDose LLC, priority 2011, dated 2016)
Not every detail of the peptide structures is certain; ends, links or a residue may be inferred. At least one structure is not confirmed: it was looked up by name or label, or the drawing left a doubt.

Biological target: T1, EPOR (erythropoietin receptor), human recombinant, NSO cells (Homo sapiens, UniProt P19235)
T1 construct: host or cells: NSO cells
T1 sequence (P19235 25-250 limits assumed): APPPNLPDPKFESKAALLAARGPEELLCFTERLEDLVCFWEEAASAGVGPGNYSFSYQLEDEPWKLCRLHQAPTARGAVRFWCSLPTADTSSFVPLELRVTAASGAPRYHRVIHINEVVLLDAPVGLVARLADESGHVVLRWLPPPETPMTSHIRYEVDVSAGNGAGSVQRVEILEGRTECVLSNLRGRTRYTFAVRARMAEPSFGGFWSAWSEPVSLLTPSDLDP
Assay: EPOR radioligand binding assay ([125I] Erythropoietin competition)
Conditions: for NH (Hill coefficient): slope of competitive binding curve; for Ki (AC-0005-002)/Ki: Ki relative to that of AC-0005-002; for Ki/Ki(EPO): Ki relative to that of EPO
Description: IC50 values were determined by a non-linear, least squares regression analysis using MATHIQ™ (computer software for integrating mathematical functions into new or existing software). […] Where presented, the Hill coefficient (nH), defining the slope of the competitive binding curve, was calculated using MATHIQ™.

SMILES	NH (Hill coefficient) (Example 3)	Ki (AC-0005-002)/Ki (Example 4, fifth table)	Ki/Ki(EPO) (Example 4, fifth table)	Ki (AC-0005-002)/Ki (Example 4, fourth table)	Ki (AC-0005-002)/Ki (Example 4, sixth table)	Ki/Ki(EPO) (Example 4, sixth table)	Ki (Example 1, mimetics varied in N-end, loop and mid sequences) [nM]	IC50 (Example 3) [nM]	Ki (Example 3, Cheng-Prusoff) [nM]	IC50 (Example 4, fifth table) [nM]	Ki (Example 4, fifth table) [nM]
CSCC[C@@H]1NC(=O)[C@H](CCCNC(=N)N)NC(=O)C(NC(=O)[C@H](CC(C)C)NC(=O)[C@H](Cc2ccc(O)cc2)NC(=O)[C@H](CC(N)=O)NC(C)=O)CCOCC(C(=O)N[C@@H](CCCCN)C(=O)N2CCC[C@H]2C(=O)NCCCCC(=O)NCCCCC(NC(=O)[C@@H]2CCCN2C(=O)[C@H](CCCCN)NC(=O)C2COCCC(NC(=O)[C@H](CC(C)C)NC(=O)[C@H](Cc3ccc(O)cc3)NC(=O)[C@H](CC(N)=O)NC(C)=O)C(=O)N[C@@H](CCCNC(=N)N)C(=O)N[C@@H](CCSC)C(=O)N3CCC[C@H]3C(=O)N[C@@H](Cc3c[nH]c4ccccc34)C(=O)N[C@@H](C(C)C)C(=O)N2)C(N)=O)NC(=O)[C@H](C(C)C)NC(=O)[C@H](Cc2c[nH]c3ccccc23)NC(=O)[C@@H]2CCCN2C1=O (some centres unmarked) [AC-0005-026]	1.1	656	74	430	900	72					
CSCC[C@@H]1NC(=O)[C@H](CCCNC(=N)N)NC(=O)C(NC(=O)[C@H](CC(C)C)NC(=O)[C@H](Cc2ccc(O)cc2)NC(=O)[C@H](CC(N)=O)NC(C)=O)CCOCC(C(=O)N[C@@H](CCCCNC(=N)N)C(=O)N2CCC[C@H]2C(=O)NCCCCC(=O)NCCCCC(NC(=O)[C@@H]2CCCN2C(=O)[C@H](CCCCNC(=N)N)NC(=O)C2COCCC(NC(=O)[C@H](CC(C)C)NC(=O)[C@H](Cc3ccc(O)cc3)NC(=O)[C@H](CC(N)=O)NC(C)=O)C(=O)N[C@@H](CCCNC(=N)N)C(=O)N[C@@H](CCSC)C(=O)N3CCC[C@H]3C(=O)N[C@@H](Cc3c[nH]c4ccccc34)C(=O)N[C@@H](C(C)C)C(=O)N2)C(N)=O)NC(=O)[C@H](C(C)C)NC(=O)[C@H](Cc2c[nH]c3ccccc23)NC(=O)[C@@H]2CCCN2C1=O (some centres unmarked) [AC-0005-051]	1.64	841	58								
CSCC[C@@H]1NC(=O)[C@H](CCCNC(=N)N)NC(=O)C(NC(=O)[C@H](CC(C)C)NC(=O)[C@H](Cc2ccc(O)cc2)NC(C)=O)CCOCC(C(=O)N[C@@H](CCCCNC(=N)N)C(=O)N2CCC[C@H]2C(=O)NCCCCC(=O)NCCCCC(NC(=O)[C@@H]2CCCN2C(=O)[C@H](CCCCNC(=N)N)NC(=O)C2COCCC(NC(=O)[C@H](CC(C)C)NC(=O)[C@H](Cc3ccc(O)cc3)NC(C)=O)C(=O)N[C@@H](CCCNC(=N)N)C(=O)N[C@@H](CCSC)C(=O)N3CCC[C@H]3C(=O)N[C@@H](Cc3c[nH]c4ccccc34)C(=O)N[C@@H](C(C)C)C(=O)N2)C(N)=O)NC(=O)[C@H](C(C)C)NC(=O)[C@H](Cc2c[nH]c3ccccc23)NC(=O)[C@@H]2CCCN2C1=O (some centres unmarked) [AC-0005-052]	1.52	339	143								
CSCC[C@@H]1NC(=O)[C@H](CCCNC(=N)N)NC(=O)C(NC(=O)[C@H](CC(C)C)NCOCCCO)CCOCC(C(=O)N[C@@H](CCCCNC(=N)N)C(=O)N2CCC[C@H]2C(=O)NCCCCC(=O)NCCCCC(NC(=O)[C@@H]2CCCN2C(=O)[C@H](CCCCNC(=N)N)NC(=O)C2COCCC(NC(=O)[C@H](CC(C)C)NCOCCCO)C(=O)N[C@@H](CCCNC(=N)N)C(=O)N[C@@H](CCSC)C(=O)N3CCC[C@H]3C(=O)N[C@@H](Cc3c[nH]c4ccccc34)C(=O)N[C@@H](C(C)C)C(=O)N2)C(N)=O)NC(=O)[C@H](C(C)C)NC(=O)[C@H](Cc2c[nH]c3ccccc23)NC(=O)[C@@H]2CCCN2C1=O (some centres unmarked) [AC-0005-053]							9.6	19.2	9.09	20	9.6
